The whole screen tested about 43,000 compounds, of which about 200 (0.47%) were called active. About 12% were inconclusive and are not listed. Calls follow the shape of the dose curve; as a rule, active = well fitted cell-killing curve with a large enough effect; inconclusive = small, poorly fitted or top-dose-only effect, or effect the other way; inactive = flat fitted curve, though single readings scatter. Some of the results follow.
% is scaled to controls: 0 for no effect and ±100 for the full control effect.

This assay in a line: Cell viability qHTS assay in S16 Pmp22-F2sN cells. Also: nearly all actives have a fitted effect of over 65% in size. Conditions: S16 Pmp22-F2sN Schwann cells (luciferase reporters placed in the Pmp22 gene) viability, CellTiter-Glo, 24 h; series mostly up to 57.5 µM; activity change, negative = cytotoxicity: at the top concentration. In short, it runs like this: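 CellTiter-Glo counter-screen, qHTS, 1536-well. Cells: S16(c9) Pmp22-F2sN, 500-1,000/well in DMEM + 10% FBS. Cpd 23 nL pin transfer, 24 h, 37C/5% CO2. Read: luminescence, CCD imager.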
(Quantitative high-throughput screening tests each substance at several concentrations.)
Regarding `CC(C)CCNC(=O)c1cn(C)c2ccc(S(=O)(=O)N3CCCC3)cc2c1=O`, the “activity change, negative = cytotoxicity” value is inactive: -6.35%. As for `Cc1ccccc1OCc1cc(=O)n2c(-c3ccccc3)csc2n1`, the “activity change, negative = cytotoxicity” value is inactive: -8.06%.

With `CCC(=O)N1CCc2cc(Br)cc(S(=O)(=O)N3CCC(C(=O)N(CC)CC)CC3)c21`, the “activity change, negative = cytotoxicity” value is inactive: -13.5%. With `CCn1cc(C(=O)N2CCN(c3cc(Cl)ccc3C)CC2)c(=O)c2cc(S(=O)(=O)N3CCOCC3)ccc21`, the “activity change, negative = cytotoxicity” value is inactive: 0.461%. As for `CC1CCN(c2cc3c(cc2F)c(=O)c(S(=O)(=O)c2ccc(Cl)cc2)cn3C)CC1`, the “activity change, negative = cytotoxicity” value was inactive: 0.77%. Turning to `COc1ccc(Nc2nc3c(S(=O)(=O)c4ccc(Br)cc4)nnn3c3ccsc23)c(OC)c1`, the “activity change, negative = cytotoxicity” value was inactive: 2.38%. For the compound `CCOC(=O)c1c(NC(=O)c2cc(-c3ccc(Cl)cc3)on2)sc2c1CCCC2`, the “activity change, negative = cytotoxicity” value is inactive: 6.23%. Take `Cc1ccc(CNc2oc(-c3ccc(COc4ccc(Cl)cc4)o3)nc2C#N)cc1`: the “activity change, negative = cytotoxicity” value was inactive: -10.3%.

With `Cc1ccc(-n2c3c(c(=O)[nH]c2=O)C(NS(=O)(=O)c2ccc(C)cc2)(C(F)(F)F)C(=O)N3)cc1` (stereo unspecified), the “activity change, negative = cytotoxicity” value is inactive: 3.86%. Consider `CCOc1ccc(CN2C(=O)c3ccccc3Sc3ccc(C(=O)NCCc4ccccc4)cc32)cc1`, for which the “activity change, negative = cytotoxicity” value was inactive: 22.3%. With `COc1ccc2[nH]cc(CCNC(=O)Nc3cccc(F)c3)c2c1` the figure was inactive: -16.1%; with `Cc1cccc(NC(=O)CSC2=Nc3ccccc3C3=NC(CCC(=O)NCc4ccc(F)cc4)C(=O)N23)c1` (stereo unspecified), inactive: -20.4%.

Regarding `CC(=O)c1ccc(NS(=O)(=O)c2cnc(N)nc2)cc1`, the “activity change, negative = cytotoxicity” value was inactive: 12.3%. With `CC(=O)c1cccc(Nc2ncnc3c2cnn3C)c1`, the “activity change, negative = cytotoxicity” value is inactive: -0.788%.

Turning to `CCOc1ccccc1NC(=O)Cc1csc(COc2cccc(C)c2)n1`, the “activity change, negative = cytotoxicity” value was inactive: 10.7%. Under `CC1CCN(S(=O)(=O)c2ccc(C(=O)Nc3nc4ccc(F)cc4s3)cc2)CC1` stands inactive: 0.722%; under `COC(=O)c1c(NC(=O)COc2c(C)cccc2C)sc2c1CCCC2`, inactive: -3.78%.

`O=C(NCC(c1ccc2c(c1)OCO2)N1CCN(c2ccc(F)cc2)CC1)c1cccc([N+](=O)[O-])c1` (stereo unspecified): the “activity change, negative = cytotoxicity” value is inactive: -12.5%. With `Cc1ccc2onc(CNC(=O)Nc3ccccc3C#N)c2c1` the figure was inactive: -3.84%. For `CCOc1ccc(C2C(C(=O)OC)=C(C)NC3=C2C(=O)c2ccccc23)cc1OC` (stereo unspecified), the “activity change, negative = cytotoxicity” value was inactive: -10.1%. With `CCc1ccc(NC(=O)C2CCCN(c3nn4cc(-c5ccc(OC)cc5)nc4s3)C2)cc1` (stereo unspecified) the figure was inactive: 0.955%. Under `O=C(Nc1ccc(F)cc1Cl)C1CCN(c2ncnc3c2nc2n3CCCCC2)CC1` stands inactive: -24.7%.

`CN(C1CCCCC1)S(=O)(=O)c1ccc2c(c1)c(=O)c(C(=O)NCc1ccccc1Cl)cn2C`: the “activity change, negative = cytotoxicity” value is inactive: 6.32%. With `COc1cccc(CNC(=O)CCc2c(C)nc3c(c2C)c(=O)n(C)c(=O)n3C)c1` the figure was inactive: 6.98%; with `CCc1ccccc1NC(=O)CSc1ncccc1C(=O)O`, inactive: 5.91%; with `COc1ccc(Nc2ncnc3c2c(-c2ccccc2)cn3-c2ccc(C)c(Cl)c2)cc1OC`, inactive: 17.4%. Consider `COCCOC(=O)c1c(C)oc2c1cc(NS(=O)(=O)c1ccc(Cl)c(C)c1)c1ccccc12`, for which the “activity change, negative = cytotoxicity” value is inactive: -28.5%. With `Cc1c(-c2cccc(NC(=O)c3ccc(F)c(F)c3)c2)nc2ncccn12` the figure was inactive: -14.8%; with `Cc1nn(C)c2c1c(C(F)(F)F)cc(=O)n2C(C)C(=O)NCCc1ccc(Cl)cc1` (stereo unspecified), inactive: 0.655%; with `CNS(=O)(=O)c1ccc(NC(=O)c2cnn3c(C(F)F)cc(-c4ccccc4)nc23)cc1`, inactive: -0.132%.

On to `CCOC(=O)c1cnc2c(Cl)c(Cl)ccc2c1NCCN1CCOCC1`, for which the “activity change, negative = cytotoxicity” value was inactive: 3.01%. On to `CCOC(=O)Cc1ccc(NC(=O)n2ncc3cc(Cl)ccc32)cc1`, for which the “activity change, negative = cytotoxicity” value was inactive: -10.9%. Under `Cc1ccc(Oc2coc3cc(OCC(=O)NC4CCCCC4)ccc3c2=O)cc1` stands inactive: 21.4%; under `N#Cc1ccc(C(=O)Nc2ccccc2-c2nc3ccccc3s2)c(F)c1`, inactive: 3.53%; under `COc1ccc(OCc2ccc(-c3nc(C#N)c(NCc4ccccc4)o3)o2)cc1`, inactive: -14.9%. Under `COc1ccc2c(c1)CC(C(=O)Nc1cccc(C)c1C)CO2` (stereo unspecified) stands inactive: 2.51%.

As for `CC(C)c1ccc(NC(=O)C2CCCN(S(=O)(=O)c3cccc4nsnc34)C2)cc1` (stereo unspecified), the “activity change, negative = cytotoxicity” value is inactive: -1.96%. On to `COc1ccc(Cn2ccnc2SCC(=O)NC2CCCC2)cc1`, for which the “activity change, negative = cytotoxicity” value was inactive: -1.21%.

For the compound `CC(CCc1ccccc1)NC(=O)Cn1c(=O)nc(-c2ccccc2F)c2cc(Cl)ccc21` (stereo unspecified), the “activity change, negative = cytotoxicity” value was inactive: 17.7%. With `Cc1oc(-c2ccccc2F)nc1CSCC(=O)NCc1ccccc1` the figure was inactive: -1.7%. Under `Cc1cccc(C)c1NC(=O)CSc1ncc2c(n1)-c1ccc(Cl)cc1N(Cc1ccccc1)S2(=O)=O` stands inactive: -25%; under `CCOC(=O)Cn1c(=O)n(C2CCCCC2)c2nc(-c3ccc(OCC)cc3)nc(C(N)=O)c21`, inactive: 20.2%; under `COc1ccc(C2CC(=O)c3cnc4c(-c5ccccc5)c(C)nn4c3C2)cc1OC` (stereo unspecified), inactive: -9.02%. With `O=C(CSc1nccn1-c1ccc(Cl)cc1)Nc1cccc2ccccc12` the figure was inactive: -0.358%; with `COC(=O)c1ccc(NS(=O)(=O)c2c(C)nc3sccn3c2=O)cc1`, inactive: -2.28%. Turning to `COc1cccc(-n2ccnc2SCC(=O)Nc2ccc(Cl)c(Cl)c2)c1`, the “activity change, negative = cytotoxicity” value is inactive: 3.13%. With `O=c1c(=O)n(-c2ccccc2)ccn1Cc1cccc(C(F)(F)F)c1` the figure was inactive: -5.2%. With `Cc1ccc(NC(=O)c2cc3nc(-c4ccc5c(c4)OCO5)cc(C(F)(F)F)n3n2)cc1Cl` the figure was inactive: 16.6%; with `O=C(NCc1ccc(F)cc1)c1ccc(CS(=O)Cc2ccc(Cl)cc2)o1` (stereo unspecified), inactive: -1.31%. With `Oc1c(C(c2ccccc2)N2CCN(c3cccc(Cl)c3)CC2)sc2nc(-c3ccco3)nn12` (stereo unspecified) the figure was inactive: -2.29%; with `Cc1c(C(=O)Nc2ccccc2Cl)sc2ncnc(N(C)C3CCCCC3)c12`, inactive: -0.423%. `COc1cc(Cl)c(NC(=O)c2cc(CN3CCCC3)on2)c(OC)c1`: the “activity change, negative = cytotoxicity” value was inactive: 18.1%. Under `Cc1ccc(N2CC(c3nnc(Cc4ccc(F)cc4)o3)CC2=O)cc1` (stereo unspecified) stands inactive: 7.22%; under `COc1ccccc1CNS(=O)(=O)c1cc(Br)cc2c1N(C(C)=O)C(C)C2` (stereo unspecified), inactive: 7.43%; under `O=C1COc2ccc(-c3cc(-c4ccc(F)cc4)c4c(n3)-c3cc(Cl)ccc3OC4)cc2N1`, inactive: 12.7%. As to `Cc1ccc(NC(=O)c2cccc(N3CCCS3(=O)=O)c2)cc1C`, the “activity change, negative = cytotoxicity” value was inactive: 6.35%. Under `Cc1ccc(NC(=O)[C@H]2O[C@@H]3OC(C)(C)O[C@@H]3[C@H]3OC(C)(C)O[C@H]32)cc1F` stands inactive: 8.54%; under `CC(C(=O)Nc1ccccc1C(F)(F)F)n1nnc2sc3c(c2c1=O)CCCC3` (stereo unspecified), inactive: 3.51%; under `CSc1nc(Nc2ccc(C)cc2)c(C#N)c(-c2ccccc2)n1`, inactive: -2.03%. With `O=C(NCCn1cc(SCc2ccccc2F)c2ccccc21)c1cccs1` the figure was inactive: 16.6%; with `CCS(=O)(=O)NCC(c1ccco1)N1CCN(c2ccccc2)CC1` (stereo unspecified), inactive: -3.17%.

The values are drawn from PubChem BioAssay AID1508642 (National Center for Advancing Translational Sciences (NCATS), 2021).
